The source gives no read counts; variants with many changes may rest on few reads.
B1: OR4K15 (parent)
chain: GUUAACGGUCAUAGGCCAUGGAAACUAGGAGCACCAUUUCGCUGCCAGUGAAGAAAUGAACAAAGAAAAUCUGGGCCAGGCAGGCAUCAAAAGAAAUAGUCUUGCGCUCAACCAGAAAGUCUGUAAUCAUUUUAAGGGUA

Variants of: B1
Assay: self-cleavage, relative activity (ratio to wild type); higher = more cleavage; in vitro, sequencing; the parent is a self-cleaving ribozyme

Row | Variant | self-cleavage
1 | A30G G44U A47U A114G U127C | 0.14
2 | G31C U57C A86G A111U U131C | 0.02
3 | C32U U38C U39A A56G U70C U87A U124A | 0.1
4 | A30G U37C A86G | 0.94
5 | A30G A47U A55U A116U | 0.18
6 | G31C U70C A94G | 1.42
7 | A30G U49C A135G | 1.31
8 | A30G A47C A59G A60U | 0.79
9 | A33G C45G A51G U131C | 0.5
10 | A30G A68G A126G | 0.65
11 | A33G A82G A95U A110G | 0.04
12 | A30G A33U A90G A111C | 0.01
13 | A30G A64G A89G A91G | 1.2
14 | A30G A56G A59G A82U A117G | 0.4
15 | A30U G44A U103C U120C | 0.52
16 | A33G A54G U72A A91U U122C | 0.07
17 | A33G U43C A94C | 0.49
18 | A33G G106A U131C | 0.01
19 | A33G A52G U57A A67G | 0.54
20 | A33C U49G A60G U102C U122G | 2.64
21 | A30G A90G A117G U130C | 0.66

Row | Variant | self-cleavage
22 | A30G U38C A62G A94G U108G A117G | 0.01
23 | A30G A60G A96G | 0.38
24 | A33G A36U A94G A111G | 0.04
25 | A33C A56G A62G | 0.63
26 | A33G A92G A114U U124A | 0.01
27 | G31A U37C A62G A63C | 1.64
28 | A30G A94G U102C | 1.24
29 | A30G U122C A129G | 0.55
30 | A30G U57A A92U | 0.35
31 | A33G U38G A82U | 0.06
32 | A30G A78G A114U A117G | 0.05
33 | C32U A63U A86U U108C | 0.02
34 | C32G A55G A116U | 0.06
35 | A33G A89G U122A | 0.16
36 | C32U A55G A59U A94G | 0.84
37 | A33G A89G U127C U133A | 0.26
38 | G29U A47G A110G U132C | 0.1
39 | A30U A33G U124C | 0.48
40 | G31U A86G U127C | 0.39
41 | A33G U37A A52G | 1.87
42 | A33G A56G A118G | 0.39

Row | Variant | self-cleavage
43 | A33G A64G U72C | 0.18
44 | A30G A60G A117G | 1.33
45 | A30U A62G A110G G138A | 0.09
46 | A33C A66G A96U U103C A111U | 0.13
47 | A33G A129U U131C | 0.27
48 | A33G A52G A54U | 0.86
49 | A30U A89G A116G | 0.87
50 | A30G U100C U122A A126G | 1.03
51 | A33C U49C U70C | 1.24
52 | A30G U38C A52G A66G U70C | 0.85
53 | A33G A36U U132G | 0.51
54 | G29U U39C U131C A135G | 0.71
55 | A30G U43C A68G A86G A89U | 0.82
56 | A30G A52U U72A A110C U130C | 0.02
57 | A33G A51G U100G | 1.99
58 | A30G A111U U132C | 0.17
59 | A30U C34U A54G A92G A110G A125G U130C U131C | 0.18
60 | A30G A64U U122A | 0.7
61 | A30G U37C A64G C128U | 1.09
62 | A30G A33U A114U | 0.09
63 | A30G A69G A118G | 1.55

Row | Variant | self-cleavage
64 | A33G A64G A94G A96G | 0.65
65 | A30G A51G A54G U122C U131A | 1.71
66 | A30U U43C A62G A94G G106U | 0.04
67 | A30G U37C A60G A82G | 0.42
68 | A33G A63G U102C | 1.73
69 | A33G A82G G136A | 0.69
70 | A30G A51U A62G A69G U87C A117G | 0.74
71 | A33G U38A A62G U103C | 0.41
72 | A33G A69G U70C | 0.43
73 | A30G A54G A140G | 1.52
74 | A30G U38C A51G A62G A68G A95G | 0.85
75 | A30G A82G A140U | 0.59
76 | A33G C42U A78U U97C | 0.1
77 | A30G A36U U103C | 0.46
78 | C32A U43C A68G A114G A134G | 0.31
79 | G31U A82C A126G | 0.02
80 | A33G A62G C113U | 0.04
81 | A33C A62U A140U | 1.66
82 | A33C A78U A126U | 0.24
83 | A30U A117G U132C | 2.27
84 | A30U A69G U87C | 0.57

— the RNAGym collection of RNA variant scans (doi:10.7554/elife.90254)
